According to the supplement of paper PMC3334620:
Over roughly 33,000 sequences, “E-score (-0.5 to 0.5)” has its median near -0.054; the highest 2% begin near 0.35. The list shows a part of the results.

These sequences were tested against T1, Stb5 (UniProt P38699) (assay: PBM E-score (8-mer binding enrichment) (E-score (-0.5 to 0.5)); higher = stronger / more preferred TF binding; most listed sequences are background and not binding sites). Details: protein concentration: 200 nM; construct: GST-full length.
T1 sequence: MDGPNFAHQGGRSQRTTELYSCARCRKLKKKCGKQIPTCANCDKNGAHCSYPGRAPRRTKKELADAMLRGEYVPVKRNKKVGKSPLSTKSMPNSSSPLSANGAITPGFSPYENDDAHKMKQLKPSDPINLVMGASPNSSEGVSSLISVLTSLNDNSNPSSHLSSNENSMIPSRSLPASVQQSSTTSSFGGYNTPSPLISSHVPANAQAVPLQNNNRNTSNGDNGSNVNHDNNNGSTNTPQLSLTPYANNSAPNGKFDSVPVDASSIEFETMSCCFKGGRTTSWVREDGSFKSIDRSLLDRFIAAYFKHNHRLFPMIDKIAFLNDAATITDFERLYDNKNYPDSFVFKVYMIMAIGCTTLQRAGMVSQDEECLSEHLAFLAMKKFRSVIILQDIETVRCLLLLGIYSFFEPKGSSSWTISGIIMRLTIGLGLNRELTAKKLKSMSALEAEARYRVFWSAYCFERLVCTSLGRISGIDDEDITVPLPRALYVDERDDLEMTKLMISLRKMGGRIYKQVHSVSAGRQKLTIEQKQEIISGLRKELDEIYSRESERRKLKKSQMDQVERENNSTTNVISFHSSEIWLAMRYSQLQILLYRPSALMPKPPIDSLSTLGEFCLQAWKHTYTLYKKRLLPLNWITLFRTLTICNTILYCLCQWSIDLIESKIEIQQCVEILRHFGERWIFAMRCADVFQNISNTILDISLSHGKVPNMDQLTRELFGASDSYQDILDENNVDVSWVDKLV
Outline: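 E-scores (a modified Wilcoxon-Mann-Whitney statistic) were assigned by the Universal PBM Analysis Suite to every ungapped eight-base word pooled with its reverse complement. The input came from universal all-10-mer Agilent arrays made double-stranded by primer extension and probed with GST-tagged yeast transcription factors at about 100-200 nM. Fluorescent anti-GST detected bound protein, and masliner normalised the scans.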

Sequence	PBM E-score
CTCCGTAC	0.229
AGTCATGA	-0.0606
GCGCGAAC	0.0921
AGTGGTAG	-0.18
CAAAGTCG	-0.0612
ATTGTGCC	0.122
ATGGTAGG	-0.151
TCCAACGA	-0.183
ACCGAAAC	0.24
CTAGATTA	-0.108
CAGTACGA	-0.208
CTTAGGGC	0.0286
CTACGCCC	-0.0109
CTATAAAC	0.165
AACGGGAT	0.322
TAGTTCGA	-0.152
AGTAGGGC	0.0296
CCACCAGG	-0.171
ACCCTTTG	0.0498
CGTTTTAC	0.0966
ATTTGACG	0.104
GCAACTCC	0.189
CCTCCCTC	-0.109
ATCAGATG	-0.115
GAACCCAA	-0.0386

Sequence	PBM E-score
GGATCTCA	-0.0635
AATGCGGC	0.243
CGTGATAC	-0.0683
GTATGGGA	-0.0832
ACAGAGAC	-0.0571
CGCTAAGC	0.0898
AGTCATTA	-0.261
AGGACTGA	-0.184
ACACTCGC	-0.0125
GTAGGTCA	-0.0628
CGGTGGTA	0.441
GCCAATCA	-0.29
GAGGCAGC	-0.266
GAGTTGGA	-0.219
GACATCCA	-0.0118
CATATCGC	0.18
GGGGGAAC	0.0385
ACCTGCAC	-0.201
GAAATTGC	-0.0137
GGTTACAC	0.127
AAACCACG	-0.103
CCCGAGAC	0.146
TAGTATAA	0.181
AAAGCCCT	-0.125
GCGTCCCA	-0.0996

Sequence	PBM E-score
CGTAAGAC	0.0101
ATCTGGGG	-0.142
TGAAACAA	-0.149
TACGCAGA	-0.163
AACCTCCG	0.408
GGACAACC	0.0349
CGAGGCCC	0.0479
CCCTGAGA	-0.247
CCAACGTA	-0.207
ATCCATGC	0.00738
GGTTTAGA	0.0135
AAGATCCG	0.307
ACTGTGCC	-0.127
CTAACGAC	-0.195
GACTTCTC	-0.163
CATTGTCA	-0.285
CGAAAGCA	-0.0233
AGGTAGAC	0.0316
ATAGGGTC	-0.0727
CAACGTGG	-0.231
CCAACCCC	0.0735
ACCATTAC	-0.0699
TGCACCCA	-0.215
TATATCGA	0.168
GAGCGGAC	0.376

Sequence	PBM E-score
ATTCACTA	-0.127
GTGTACCA	-0.12
CCAGGACC	-0.168
CTCGCGTA	-0.172
GATGTGGC	-0.105
CAGTGGCA	-0.265
CAGAATTA	0.0466
AGGGATGA	-0.0722
CAGCAAGG	-0.369
GAGGAAGA	-0.19
ACAAATGT	0.035
GTTCCATA	-0.0279
AGCTGCAT	-0.171
CACCTACG	0.187
ATACTAGA	-0.152
AACGACTG	-0.255
CGCGGGTA	0.235
TTCCAAAA	-0.118
AAATTTCC	0.00205
AGTAGGAT	-0.164
ATGAGTTA	-0.145
ATACGGCA	0.164
AACACTAG	-0.135
ACGTGTAT	-0.176
CCGCGCTA	0.256

Sequence	PBM E-score
CTAGATAA	-0.164
ATCCTCTG	-0.156
AATTGCAT	-0.162
GCGATACA	-0.0993
ATGGCCCC	0.167
CGAAGTAA	-0.0992
ATATCAAT	0.00089
ACATCTGA	-0.0767
CCGTCCTA	0.161
ACAGCTAT	-0.275
ACGCGTTG	0.103
GCTGTTAA	0.232
CAGTGACG	-0.0235
CTTACGCC	0.111
TACATCGA	-0.0768
ATCGGGTA	0.114
AGGAATCC	-0.145
CCAGTTCG	0.0984
CAGGCCCA	-0.176
ATCGAAAC	0.0332
GTACCAAC	-0.00359
CCTGCGCA	-0.105
GCCTAAAA	-0.167
ACGCTGAC	0.00893
AAGCAATT	-0.142

Sequence	PBM E-score
AGATGTGA	-0.0838
TATGAAGA	-0.114
GCATTTTA	0.178
CGTGTGAG	-0.218
CATCGACC	0.0202
AAAACTCA	-0.142
ACGGCACT	0.427
GAATGATA	-0.0504
CTTCGGTC	0.119
ATCTAAAT	0.126
CTTTCGCA	-0.0435
AACTAAAC	0.0284
CGCCGGAG	0.306
GCCATCGA	-0.0312
CAGGAGGC	-0.098
CGGCAAAA	0.245
CACGAGGC	-0.0617
GGGGTCCA	-0.0316
CAAGGTAG	-0.116
ACGAGGCA	-0.206
CGGTCGTA	0.381
GCAAAAGC	0.0498
AGCGATTC	-0.0853
ATTTTATC	0.161
AGAGGCCC	-0.168

Sequence	PBM E-score
GCCAACCC	-0.171
GAGGTTAA	0.0281
AAATACGA	-0.0284
ACGCTACC	-0.0183
ACTCCTTG	-0.00332
AGTGAACG	-0.195
CCATAGTA	-0.00415
CTGCTACC	-0.129
CAATTACC	0.191
GCTTAGTA	-0.0135
ATTCTCGA	-0.188
ATCGTGAC	-0.00593
CCCTGATA	-0.187
GAAGAGTC	-0.178
ACGGATGG	0.0651
CATTGCCC	-0.155
ATGTTAAA	0.0317
AGGGCGAG	-0.295
AGTAATCC	-0.0793
ACGAGGGC	-0.0712
GCCTCATA	-0.12
ACTGGTCG	-0.0341
